Assay results from PubChem BioAssay (NCATS).
Inconclusive means that the source gave no clear call. Such entries were picked first, then a sample of the others. For some of these results: Potencies of inconclusive entries are left out as doubtful fits. Calls of active or inactive are those of the source. Unless noted, calls follow the shape of the dose curve; as a rule, active = well fitted curve in the direction sought with a large enough effect; inconclusive = small, poorly fitted or top-dose-only effect, or another doubt; inactive = no such curve, though single readings can be large; an effect the other way counts as inactive or inconclusive.

What was measured:
[1] = molecular target: Rap guanine nucleotide exchange factor 3 (Homo sapiens) (UniProt O95398); assay: Confirmatory qHTS for antagonist of cAMP-regulated guanine nucleotide exchange factor 3 (EPAC1) (AID 1645880); details: EPAC1 Rap1B-BODIPY-GDP exchange, fluorescence; activity, negative = inhibition: at 115 µM (top of the series); also: nearly all actives have a fitted effect of over 55% in size; also: potency is read from the fitted curve at half-maximal effect;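 as to activity, negative = inhibition: plate controls were DMSO only for no effect and full effect of the ATA control for full effect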
In short: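 Nucleotide exchange uses 100 nM EPAC1, 250 nM RAP1B-BODIPY-GDP and 50 uM GDP, with compounds in a concentration-titration series. After 5 min at room temperature, fluorescence (480 nm ex/540 nm em) is read every 5 min for 30 min. Data are normalized to control ATA and DMSO.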

[2] = molecular target: Rap guanine nucleotide exchange factor 3 (Homo sapiens) (UniProt O95398); assay: Confirmatory qHTS for agonist of cAMP-regulated guanine nucleotide exchange factor 3 (EPAC1) (AID 1645881); details: EPAC1 Rap1B BODIPY-GDP exchange fluorescence; activation: at 154 µM (top of the series), 100% = cAMP control response; also: nearly all actives have a fitted effect of over 75% in size; also: potency is read from the fitted curve at half-maximal effect;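 as to activation: EPAC1 catalysed release of BODIPY-GDP from Rap1B seen as fluorescence loss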
[3] = molecular target: Rap guanine nucleotide exchange factor 4 (Homo sapiens) (UniProt Q8WZA2); assay: Confirmatory qHTS for agonist of cAMP-regulated guanine nucleotide exchange factor 4 (EPAC2) (AID 1645884); details: EPAC2 GEF activity, Rap1B-BODIPY-GDP fluorescence; activation: at 154 µM (top of the series), percent relative to cAMP agonist control;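 also: nucleotide exchange releases bodipy-GDP from Rap1 and this lowers its fluorescence; nearly all actives have a fitted effect of over 65% in size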; also: potency is read from the fitted curve at half-maximal effect; as to activation: % is scaled to controls: 0 for no effect and ±100 for the full control effect
[4] = molecular target: Rap guanine nucleotide exchange factor 3 (Homo sapiens) (UniProt O95398); assay: Counterscreen qHTS for agonist of cAMP-regulated guanine nucleotide exchange factor 3 (EPAC1) (AID 1645889); details: EPAC1 Rap1B-BODIPY-GDP exchange, fluorescence; activation: at 154 µM (top of the series) unless noted; also: nearly all actives have a fitted effect of over 40% in size; also: potency is read from the fitted curve at half-maximal effect; as to activation: % of control where 0% means no effect
In short: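 Rap1B–BODIPY-GDP (250 nM) with 50 uM GDP; compounds pin-transferred to 9.74 nM–152 uM final (activator) or from 7.32 nM upwards (inhibitor). Fluorescence Ex/Em 480/540 nm read at 5 and 30 min, then after adding cAMP or buffer, at room temperature.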

[5] = molecular target: Mitogen-activated protein kinase 10 (Mus musculus) (UniProt Q61831); assay: JNK3 AlphaScreen Assay (AID 530; active = well fitted curve in either direction with a large enough effect, not every such curve was filed as active; inconclusive = small, poorly fitted or top-dose-only effect, or another doubt;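 also: kinase came from lysate of stimulated human HepG2 cells; signal reports phosphorylation of biotinylated GST-cJun 1-79 at Ser73 with 10 µM ATP; potency is read from the fitted curve at half-maximal effect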); details: JNK3 lysate, c-Jun phosphorylation; activity change, negative = inhibition: at 57.1 µM (top of the series)
In short: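 Pre-activated (IL-1β/TNFα) JNK3 in HepG2 lysates phosphorylates biotin-GST-cJun(1-79), 10 uM ATP; anti-phospho-cJun(Ser73) AlphaScreen read at room temperature, pH 7.6 Tris buffer. Compounds pre-incubated 15 min as titrations.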

[6] = molecular target: 3',5'-cyclic-AMP phosphodiesterase 4B (Homo sapiens) (UniProt Q07343); assay: qHTS Assay for Inhibitors of PDE-IV (AID 607; active = well fitted activation curve with a large enough effect in the main read-out, with a control signal flat, not every such curve was filed as active; inconclusive = small, poorly fitted or top-dose-only effect, or effect the other way, or a change in a side signal; also: potency is read from the fitted curve at half-maximal effect); details: HEK293 ACTOne CNG channel cells, membrane potential fluorescence; activation (PDE inhibition): at 22.9 µM (top of the series)
In short: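 The readout is membrane depolarisation from a cAMP-sensing CNG channel, detected with a potential dye at ex 535/em 590. Cells were HEK293-derived (endogenous PDE-IV) at 1000 cells/well, titrated up to 22.9 uM final.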

[7] = qHTS Assay for Identification of Small Molecule Agonists for Hypoxia Response Element Signaling Pathway (AID 914; active = well fitted activation curve with a large enough effect in the signal ratio, with a control signal flat, not every such curve was filed as active; inconclusive = small, poorly fitted or top-dose-only effect, or effect the other way, or a change in a side signal; the % refers to the signal ratio; also: potency is read from the fitted curve at half-maximal effect); details: ME-180 (cervical carcinoma) HRE-bla reporter, beta-lactamase ratio, CoCl2, 17 h; activation: hits give high values
In short: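 HRE-bla ME-180 cells, overnight plating in Opti-MEM with 0.5% dialyzed FBS; cpd titration + EC50 CoCl2, 17 h, 37 degrees Celsius; CCF4 2.5 h RT; 460/530 nm ratio; AC50.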

[8] = molecular target: Ubiquitin carboxyl-terminal hydrolase 1 (Homo sapiens) (UniProt O94782); assay: Inhibitors of USP1/UAF1: Pilot qHTS (AID 504865);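 also: rhodamine fluorescence freed from ubiquitin-rhodamine substrate followed over time; top concentration of the series differs between compounds; % is scaled to controls: 0 for no effect and ±100 for the full control effect; nearly all actives have a fitted effect of over 35% in size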
In short: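 USP1/UAF1 complex at 1 nM preincubated 15 min at room temperature with compound, then Ub-Rho substrate added at 150 nM final. Fluorescence (480/540 nm) read kinetically in 50 mM HEPES pH 7.8, 0.5 mM EDTA, 1 mM TCEP, 0.1 mg/ml BSA, 0.01% Tween-20.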

[9] = molecular target: Rap guanine nucleotide exchange factor 4 (Homo sapiens) (UniProt Q8WZA2); assay: Confirmatory qHTS for antagonist of cAMP-regulated guanine nucleotide exchange factor 4 (EPAC2) (AID 1645885); details: activity change, negative = inhibition: at 12.7 µM (top of the series) unless noted; also: nearly all actives have a fitted effect of over 25% in size; also: potency is read from the fitted curve at half-maximal effect; as to activity change, negative = inhibition: % is scaled to controls: 0 for no effect and ±100 for the full control effect
[10] = molecular target: DNA polymerase eta (Homo sapiens) (UniProt Q9Y253); assay: qHTS for Inhibitors of Polymerase Eta: Confirmatory Assay for Cherry-picked Compounds (AID 720502); details: Pol eta primer extension, TAMRA/BHQ fluorescence, 10 min; also: potency is read from the fitted curve at half-maximal effect
In short: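 10 nM Pol eta + cpd, 15 min RT; start w/ 50 nM final primer/TAMRA-reporter/BHQ-2-template substrate; kinetic read 0 and 10 min, ex 525/em 598 nm. Buffer-only wells = negative control.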
Tags tell the direction and shape of the fitted curve or compound fluorescence and quenching.

Chain of UniProt Q8WZA2 (Q8WZA2 whole entry, looked up): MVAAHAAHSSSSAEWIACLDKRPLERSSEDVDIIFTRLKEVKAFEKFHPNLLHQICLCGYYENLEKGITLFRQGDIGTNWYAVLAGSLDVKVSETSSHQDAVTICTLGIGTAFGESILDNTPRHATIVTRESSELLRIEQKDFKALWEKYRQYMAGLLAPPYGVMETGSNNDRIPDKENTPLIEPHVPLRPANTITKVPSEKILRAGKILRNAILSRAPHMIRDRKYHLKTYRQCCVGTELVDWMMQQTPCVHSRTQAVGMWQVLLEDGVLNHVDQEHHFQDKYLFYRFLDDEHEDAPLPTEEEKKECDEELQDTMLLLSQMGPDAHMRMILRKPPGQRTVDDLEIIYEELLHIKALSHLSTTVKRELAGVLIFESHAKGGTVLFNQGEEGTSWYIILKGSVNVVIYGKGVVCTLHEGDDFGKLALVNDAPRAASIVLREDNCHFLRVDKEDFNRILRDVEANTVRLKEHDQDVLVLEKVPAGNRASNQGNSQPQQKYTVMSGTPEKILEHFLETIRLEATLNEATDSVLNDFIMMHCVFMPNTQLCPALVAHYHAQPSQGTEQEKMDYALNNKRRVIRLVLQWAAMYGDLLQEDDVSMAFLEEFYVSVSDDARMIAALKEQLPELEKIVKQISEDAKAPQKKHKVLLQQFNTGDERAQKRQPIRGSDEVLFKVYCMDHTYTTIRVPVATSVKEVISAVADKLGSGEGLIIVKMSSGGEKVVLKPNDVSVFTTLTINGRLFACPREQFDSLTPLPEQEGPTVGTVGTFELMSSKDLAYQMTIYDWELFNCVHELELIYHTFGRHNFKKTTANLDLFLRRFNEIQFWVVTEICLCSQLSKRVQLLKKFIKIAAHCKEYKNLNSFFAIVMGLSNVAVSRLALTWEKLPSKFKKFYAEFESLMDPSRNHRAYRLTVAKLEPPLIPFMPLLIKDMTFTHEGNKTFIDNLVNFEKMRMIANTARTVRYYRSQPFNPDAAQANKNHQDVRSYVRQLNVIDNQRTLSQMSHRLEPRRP
Chain of UniProt O95398 (O95398 whole entry, looked up): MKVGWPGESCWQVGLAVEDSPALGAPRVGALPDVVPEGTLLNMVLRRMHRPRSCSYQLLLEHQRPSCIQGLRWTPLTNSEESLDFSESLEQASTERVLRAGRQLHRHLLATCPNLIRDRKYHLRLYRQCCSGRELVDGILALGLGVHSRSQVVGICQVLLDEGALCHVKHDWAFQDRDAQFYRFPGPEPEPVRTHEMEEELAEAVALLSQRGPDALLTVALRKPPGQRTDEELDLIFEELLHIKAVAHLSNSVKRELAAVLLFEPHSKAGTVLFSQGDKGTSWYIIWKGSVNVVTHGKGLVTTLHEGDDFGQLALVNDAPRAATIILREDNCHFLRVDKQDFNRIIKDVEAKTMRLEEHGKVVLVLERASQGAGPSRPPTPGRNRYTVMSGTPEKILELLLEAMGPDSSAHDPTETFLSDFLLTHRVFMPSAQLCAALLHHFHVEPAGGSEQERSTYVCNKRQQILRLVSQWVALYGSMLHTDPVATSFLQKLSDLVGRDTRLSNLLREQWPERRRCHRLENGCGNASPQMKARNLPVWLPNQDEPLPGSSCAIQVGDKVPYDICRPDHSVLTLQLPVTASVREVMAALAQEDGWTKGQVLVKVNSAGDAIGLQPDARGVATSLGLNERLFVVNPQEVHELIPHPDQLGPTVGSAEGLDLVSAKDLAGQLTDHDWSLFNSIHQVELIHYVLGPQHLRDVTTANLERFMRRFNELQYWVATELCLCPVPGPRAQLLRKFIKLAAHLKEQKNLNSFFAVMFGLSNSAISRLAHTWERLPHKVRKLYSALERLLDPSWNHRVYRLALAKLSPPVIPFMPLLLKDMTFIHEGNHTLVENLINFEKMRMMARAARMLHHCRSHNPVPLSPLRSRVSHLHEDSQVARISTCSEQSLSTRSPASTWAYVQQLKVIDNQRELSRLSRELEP
Chain of UniProt Q07343 (Q07343 whole entry, looked up): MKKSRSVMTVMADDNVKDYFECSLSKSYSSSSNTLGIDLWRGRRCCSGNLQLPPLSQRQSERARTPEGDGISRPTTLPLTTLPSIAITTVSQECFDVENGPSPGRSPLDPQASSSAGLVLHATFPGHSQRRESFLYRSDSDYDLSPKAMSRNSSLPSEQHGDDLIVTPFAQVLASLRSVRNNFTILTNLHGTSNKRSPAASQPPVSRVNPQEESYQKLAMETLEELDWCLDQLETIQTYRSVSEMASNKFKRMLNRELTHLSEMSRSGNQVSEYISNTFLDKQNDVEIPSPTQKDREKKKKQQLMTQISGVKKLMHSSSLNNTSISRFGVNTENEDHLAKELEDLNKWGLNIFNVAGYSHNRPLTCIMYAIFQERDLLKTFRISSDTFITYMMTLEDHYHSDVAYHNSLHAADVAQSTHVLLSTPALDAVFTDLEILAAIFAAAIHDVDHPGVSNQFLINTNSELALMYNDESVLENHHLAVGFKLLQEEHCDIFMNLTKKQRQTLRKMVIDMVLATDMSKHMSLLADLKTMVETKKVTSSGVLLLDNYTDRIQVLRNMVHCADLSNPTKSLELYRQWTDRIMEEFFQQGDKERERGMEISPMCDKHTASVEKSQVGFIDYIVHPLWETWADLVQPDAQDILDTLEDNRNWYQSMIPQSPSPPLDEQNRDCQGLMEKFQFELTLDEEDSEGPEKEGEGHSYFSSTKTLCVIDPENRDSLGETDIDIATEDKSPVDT
Chain of UniProt O94782 (O94782 whole entry, looked up): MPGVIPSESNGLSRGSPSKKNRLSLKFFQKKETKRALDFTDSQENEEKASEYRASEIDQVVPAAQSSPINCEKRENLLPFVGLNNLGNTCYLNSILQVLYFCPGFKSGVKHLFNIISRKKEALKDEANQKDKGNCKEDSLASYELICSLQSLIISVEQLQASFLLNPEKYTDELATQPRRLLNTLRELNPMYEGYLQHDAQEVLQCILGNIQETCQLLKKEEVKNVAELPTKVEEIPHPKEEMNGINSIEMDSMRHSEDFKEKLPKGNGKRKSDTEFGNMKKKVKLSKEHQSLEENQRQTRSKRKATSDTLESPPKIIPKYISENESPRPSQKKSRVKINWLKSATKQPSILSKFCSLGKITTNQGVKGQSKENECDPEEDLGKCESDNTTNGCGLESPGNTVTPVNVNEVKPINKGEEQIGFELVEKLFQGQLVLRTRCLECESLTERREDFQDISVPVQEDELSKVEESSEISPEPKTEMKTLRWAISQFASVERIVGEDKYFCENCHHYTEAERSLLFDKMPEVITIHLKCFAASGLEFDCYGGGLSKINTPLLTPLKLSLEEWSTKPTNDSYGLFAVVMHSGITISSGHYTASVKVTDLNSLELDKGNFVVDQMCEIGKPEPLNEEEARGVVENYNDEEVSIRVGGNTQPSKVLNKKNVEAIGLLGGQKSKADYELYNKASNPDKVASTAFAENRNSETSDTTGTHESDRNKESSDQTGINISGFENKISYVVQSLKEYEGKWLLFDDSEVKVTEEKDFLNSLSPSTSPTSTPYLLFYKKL
Chain of UniProt Q9Y253 (Q9Y253 whole entry, looked up): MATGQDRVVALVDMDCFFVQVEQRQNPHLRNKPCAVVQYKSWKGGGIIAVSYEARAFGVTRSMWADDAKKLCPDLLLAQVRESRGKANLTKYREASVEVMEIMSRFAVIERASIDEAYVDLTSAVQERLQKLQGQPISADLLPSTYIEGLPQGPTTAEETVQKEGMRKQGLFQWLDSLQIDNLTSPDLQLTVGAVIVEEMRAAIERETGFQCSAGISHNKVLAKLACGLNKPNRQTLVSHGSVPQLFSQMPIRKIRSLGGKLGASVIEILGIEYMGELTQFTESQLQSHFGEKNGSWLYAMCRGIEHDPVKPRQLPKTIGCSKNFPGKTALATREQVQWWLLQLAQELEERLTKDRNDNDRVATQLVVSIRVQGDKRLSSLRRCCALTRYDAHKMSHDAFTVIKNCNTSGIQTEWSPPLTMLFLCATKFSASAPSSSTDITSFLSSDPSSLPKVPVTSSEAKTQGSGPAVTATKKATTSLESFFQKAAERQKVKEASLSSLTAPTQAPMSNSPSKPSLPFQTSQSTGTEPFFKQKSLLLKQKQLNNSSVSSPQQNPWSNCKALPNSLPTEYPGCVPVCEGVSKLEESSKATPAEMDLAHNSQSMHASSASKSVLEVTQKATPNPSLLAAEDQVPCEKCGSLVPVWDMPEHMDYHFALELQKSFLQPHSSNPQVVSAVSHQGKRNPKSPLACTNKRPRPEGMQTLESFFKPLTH

O=C(NCCOc1ccccc1F)c1ccccc1SCc1ccc(F)cc1
Potency [1]: inactive | Potency [2]: inconclusive [activator, partial curve, poor fit] | Potency [3]: inconclusive [activator, partial curve, poor fit] | Potency [4]: inactive

Cc1cccc(N2CCN(S(=O)(=O)c3ccc4c(c3)CCN4C(=O)CCC(=O)O)CC2C)c1 (stereo not drawn)
Potency [1]: active: 47.8 µM | Potency [2]: inconclusive [activator, partial curve] | Potency [3]: inconclusive [activator, partial curve, poor fit] | Potency [4]: inactive

O=S(=O)(c1ccc(Br)c2ccccc12)N1CCCC1
Potency [1]: inactive | Potency [2]: inactive | Potency [3]: inconclusive [activator, partial curve, poor fit] | Potency [4]: inactive

CC1=CC2=NC(=O)/C(=C/c3coc4ccccc4c3=O)C(=N)N2O1
Potency [1]: inactive | Potency [2]: inconclusive [activator, partial curve, poor fit] | Potency [3]: inconclusive [activator, partial curve] | Potency [4]: active: 39.8 µM

O=c1c(-c2cccs2)nc2cnc(N3CCOCC3)nc2n1CCc1ccccc1
Potency [5]: inconclusive [activator, full curve] | Potency [6]: inconclusive [activator, partial curve] | Potency [7]: inconclusive [activator, single point] | Potency [8]: inactive | Potency [1]: inactive | Potency [2]: inconclusive [activator, partial curve] | Potency [3]: inconclusive [activator, partial curve, poor fit] | Potency [9]: inactive

Cn1cc(-c2cnc3c(NC=O)cc(-c4cccc(C(F)(F)F)c4)cn23)cn1
Potency [1]: inconclusive [inhibitor, partial curve, poor fit] | Potency [2]: inconclusive [activator, partial curve, poor fit] | Potency [3]: inconclusive [activator, single point] | Potency [4]: inconclusive [activator, full curve, poor fit]

N#C/C(=C\c1ccc(-c2ccccc2C(=O)O)o1)c1nc2ccccc2[nH]1
Potency [1]: inconclusive [inhibitor, partial curve] | Potency [2]: inactive | Potency [3]: inconclusive [activator, single point] | Potency [4]: inconclusive [activator, partial curve]

COc1ccc(C2CC(c3cccs3)=NN2c2ccc(C=O)cc2)cc1 (stereo not drawn)
Potency [1]: inactive | Potency [2]: inconclusive [activator, single point] | Potency [3]: inconclusive [activator, single point] | Potency [4]: active: 44.7 µM

COc1ccccc1Oc1nc(-c2cccnc2)nc2ccccc12
Potency [1]: inconclusive [inhibitor, partial curve, poor fit] | Potency [2]: inconclusive [activator, partial curve, poor fit] | Potency [3]: inconclusive [activator, partial curve] | activation [4]: inconclusive: 72.3% [activator]

OCc1ccc(-c2ccccc2)c(-c2ccccc2)c1
Potency [1]: inconclusive [inhibitor, partial curve] | Potency [2]: inconclusive [activator, partial curve] | Potency [3]: inconclusive [activator, partial curve] | Potency [4]: inconclusive [activator, partial curve, poor fit]

Cc1ccc(C)c(OC(C)C(=O)Nc2ccc(S(=O)(=O)Nc3nccs3)cc2)c1 (stereo not drawn)
Potency [1]: inconclusive [inhibitor, partial curve, poor fit] | Potency [2]: inactive | Potency [3]: inactive | activation [4]: inconclusive: 25.5% [activator]

COc1cccc(Cn2c(=O)c3ccccc3n3nc(C)cc23)c1
Potency [1]: inconclusive [inhibitor, single point] | Potency [2]: inconclusive [activator, partial curve] | Potency [3]: inconclusive [activator, partial curve, poor fit] | Potency [4]: inconclusive [activator, full curve, poor fit]

Cc1cccc(NC(=O)c2sc3nc(-c4cc5ccc(O)cc5oc4=O)[nH]c(=O)c3c2C)c1
Potency [10]: inconclusive [inhibitor, single point] | Potency [1]: inactive | Potency [2]: inconclusive [activator, single point] | Potency [3]: inconclusive [activator, partial curve, poor fit] | Potency [9]: inconclusive [inhibitor, partial curve, poor fit] | Potency [4]: active: 50.1 µM
